Data from paper PMC7801473 (2021).
No constants are given. Whether binding was seen depends on the method and setting. Some entries that bind do so weakly or less than the wild type. Sequences can lack the tags named with a protein.

Amino acid sequences for entries named in this document (tags omitted). A change or cut given only in a name is not applied to a line headed by its entry. Chains listed by the source or under a name are the forms on record and can include a tag or linker. Residues count along the entry.
UniProt Q9ULZ3: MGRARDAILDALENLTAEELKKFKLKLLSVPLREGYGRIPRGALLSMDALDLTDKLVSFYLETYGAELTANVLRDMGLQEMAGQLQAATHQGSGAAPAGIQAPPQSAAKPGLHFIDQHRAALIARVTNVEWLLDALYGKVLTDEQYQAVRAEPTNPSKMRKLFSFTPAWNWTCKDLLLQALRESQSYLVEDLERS
ASC^CARD (M2H fusion): residues 107-195 of Q9ULZ3
ASC^CARD D143A/E144A (Y2H construct) (Q9ULZ3, form named): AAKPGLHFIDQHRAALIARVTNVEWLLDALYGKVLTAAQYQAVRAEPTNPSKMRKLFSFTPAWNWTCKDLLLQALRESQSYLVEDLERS
ASC^CARD N128A/E130R (Y2H construct) (Q9ULZ3, form named): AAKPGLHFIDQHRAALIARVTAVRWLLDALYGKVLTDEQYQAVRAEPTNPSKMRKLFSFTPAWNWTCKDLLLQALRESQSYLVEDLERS
UniProt P55211, residues 1-92: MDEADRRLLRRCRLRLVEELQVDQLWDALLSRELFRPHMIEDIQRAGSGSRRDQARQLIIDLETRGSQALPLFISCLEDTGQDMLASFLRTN

Legend:
[1] = molecular target: wild-type full-length ASC (M2H fusion) (human) (UniProt Q9ULZ3); assay: two-hybrid; mammalian two-hybrid (Checkmate, Promega), pACT (VP16 AD) and pBIND (GAL4 BD) with pG5luc in HEK293T cells, firefly luciferase normalised to Renilla, 48 h
[2] = molecular target: ASC^CARD (M2H fusion) (human) (UniProt Q9ULZ3); assay: as above
[3] = molecular target: ASC^CARD D143A/E144A (Y2H construct) (human) (UniProt Q9ULZ3); assay: two-hybrid; yeast two-hybrid (GAL4 Matchmaker), pGBK-T7 and pGAD-T7 in S. cerevisiae AH109, growth on -His/-Leu/-Trp plates, 30 °C
[4] = molecular target: ASC^CARD N128A/E130R (Y2H construct) (human) (UniProt Q9ULZ3); assay: as above
[5] = molecular target: human-derived CASP9^CARD (human) (UniProt P55211); assay: as above

B1: wild-type full-length NLRP1 (M2H fusion) (protein, UniProt Q9C000-1 1-1473)
chain: MAGGAWGRLACYLEFLKKEELKEFQLLLANKAHSRSSSGETPAQPEKTSGMEVASYLVAQYGEQRAWDLALHTWEQMGLRSLCAQAQEGAGHSPSFPYSPSEPHLGSPSQPTSTAVLMPWIHELPAGCTQGSERRVLRQLPDTSGRRWREISASLLYQALPSSPDHESPSQESPNAPTSTAVLGSWGSPPQPSLAPREQEAPGTQWPLDETSGIYYTEIREREREKSEKGRPPWAAVVGTPPQAHTSLQPHHHPWEPSVRESLCSTWPWKNEDFNQKFTQLLLLQRPHPRSQDPLVKRSWPDYVEENRGHLIEIRDLFGPGLDTQEPRIVILQGAAGIGKSTLARQVKEAWGRGQLYGDRFQHVFYFSCRELAQSKVVSLAELIGKDGTATPAPIRQILSRPERLLFILDGVDEPGWVLQEPSSELCLHWSQPQPADALLGSLLGKTILPEASFLITARTTALQNLIPSLEQARWVEVLGFSESSRKEYFYRYFTDERQAIRAFRLVKSNKELWALCLVPWVSWLACTCLMQQMKRKEKLTLTSKTTTTLCLHYLAQALQAQPLGPQLRDLCSLAAEGIWQKKTLFSPDDLRKHGLDGAIISTFLKMGILQEHPIPLSYSFIHLCFQEFFAAMSYVLEDEKGRGKHSNCIIDLEKTLEAYGIHGLFGASTTRFLLGLLSDEGEREMENIFHCRLSQGRNLMQWVPSLQLLLQPHSLESLHCLYETRNKTFLTQVMAHFEEMGMCVETDMELLVCTFCIKFSRHVKKLQLIEGRQHRSTWSPTMVVLFRWVPVTDAYWQILFSVLKVTRNLKELDLSGNSLSHSAVKSLCKTLRRPRCLLETLRLAGCGLTAEDCKDLAFGLRANQTLTELDLSFNVLTDAGAKHLCQRLRQPSCKLQRLQLVSCGLTSDCCQDLASVLSASPSLKELDLQQNNLDDVGVRLLCEGLRHPACKLIRLGLDQTTLSDEMRQELRALEQEKPQLLIFSRRKPSVMTPTEGLDTGEMSNSTSSLKRQRLGSERAASHVAQANLKLLDVSKIFPIAEIAEESSPEVVPVELLCVPSPASQGDLHTKPLGTDDDFWGPTGPVATEVVDKEKNLYRVHFPVAGSYRWPNTGLCFVMREAVTVEIEFCVWDQFLGEINPQHSWMVAGPLLDIKAEPGAVEAVHLPHFVALQGGHVDTSLFQMAHFKEEGMLLEKPARVELHHIVLENPSFSPLGVLLKMIHNALRFIPVTSVVLLYHRVHPEEVTFHLYLIPSDCSIRKAIDDLEMKFQFVRIHKPPPLTPLYMGCRYTVSGSGSGMLEILPKELELCYRSPGEDQLFSEFYVGHLGSGIRLQVKDKKDETLVWEALVKPGDLMPATTLIPPARIAVPSPLDAPQLLHFVDQYREQLIARVTSVEVVLDKLHGQVLSQEQYERVLAENTRPSQMRKLFSLSQSWDRKCKDGLYQALKETHPHLIMELWEKGSKKGLLPLSS
[1]
  binding: binds

B2: NLRP1^CARD (M2H fusion) (domain or fragment, UniProt Q9C000-1 1374-1463)
chain: DAPQLLHFVDQYREQLIARVTSVEVVLDKLHGQVLSQEQYERVLAENTRPSQMRKLFSLSQSWDRKCKDGLYQALKETHPHLIMELWEKG
[2]
  binding: binds

B3: GAL4 activation domain (AD)-NLRP1^CARD fusion (domain or fragment, UniProt Q9C000-1 1374-1463)
chain: B2 chain
[3]
  binding: no binding
[4]
  binding: no binding
[5]
  binding: no binding
